# The inconclusive results got no clear call from the source; some entries with a clear call stand among them for comparison. For some assays here: Potencies beside an inconclusive call are fits to weak or partial responses and may not hold up. The source made the active and inactive calls. Unless noted, calls come from the whole dose curve; as a rule, active = well fitted curve in the direction sought with a large enough effect; inconclusive = small, poorly fitted or top-dose-only effect, or another doubt; inactive = no such curve, though single readings can be large; an effect the other way counts as inactive or inconclusive. Where a SMILES comes first, the peptide text is derived from it. [ ]: non-standard residue; d: D form. ξ: configuration not given here. ξPhe(βξ-Me) = CC(c1ccccc1)C(N)C(=O)O; GABA = NCCCC(=O)O
# Key:
# [1] = P-glycoprotein substrates identified in KB-8-5-11 adenocarcinoma cell line, qHTS therapeutic library screen (AID 1346987); note: nearly all actives have a fitted effect of over 65% in size; note: potency is the fitted concentration of half-maximal effect
# Method in brief: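 Compounds are pinned in dose-response onto KB-8-5-11 cells (500 cells/well, colchicine-free medium) and left 72 h at 37 degree C. CellTiter-Glo luminescence then yields AC50 values.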
# [2] = Primary fluorescence-based thiol-reactive (MSTI) qHTS assay for identification of artifact compounds. (AID 1845221); note: potency is the fitted concentration of half-maximal effect;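 note: thiol-reactive compounds lower the probe fluorescence signal; nearly all actives have a fitted effect of over 65% in size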
# Method in brief: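 Probe: MSTI 4 uM, PBS pH 7.4, 2% DMSO. Incubation 1 h, RT, light-protected. Readout fluorescence 525/598 nm.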
# HEK293 = assay: Cytotoxic Profiling of Annotated Libraries Using Quantitative High-Throughput Screening (AID 1296008); conditions: Five cell lines viability, CellTiter-Glo ATP luminescence, 48-72 h; max response: stronger effect = lower value; note: nearly all actives have a fitted effect of over 60% in size; note: potency is the fitted concentration of half-maximal effect; for max response: % is set by controls: 0 for no effect and ±100 for the full control effect
# Method in brief: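 Cells exposed to compounds for 48 or 72 hr at 37 degrees Celsius. Viability read as ATP-coupled luminescence with CellTiter-Glo after 10 min at room temperature.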
# C33A = assay: Primary qHTS to identify gynecologic anti-cancer compounds using libraries of approved drugs and bioactive compounds (AID 1345084); conditions: Gynecologic cancer cell panel viability, ATPlite luminescence, 48 h; series mostly up to 57.5 µM; note: nearly all actives have a fitted effect of over 55% in size; note: potency is the fitted concentration of half-maximal effect; for activity change, negative = cytotoxicity: % is set by controls: 0 for no effect and ±100 for the full control effect
# Method in brief: (§1)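 Cell viability after 48 h drug treatment, ATPlite luminescence readout; five doses.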
# [3] = Primary qHTS for inhibitors of nuclear receptor binding SET domain protein 2 (NSD2) in an isogenic RCH-ACV NSD2 p.E1099K mutant (9B) (AID 1645876); note: nearly all actives have a fitted effect of over 70% in size; note: potency is the fitted concentration of half-maximal effect
# [4] = Primary qHTS for inhibitors of nuclear receptor binding SET domain protein 2 (NSD2) in an RCH-ACV wild type WT cells (2C) (AID 1645877); conditions: activity change, negative = cell killing: at 44.9 µM (top of the series) unless noted; note: nearly all actives have a fitted effect of over 70% in size; note: potency is the fitted concentration of half-maximal effect
# PA-1 = assay: Primary qHTS to identify gynecologic anti-cancer compounds using libraries of approved drugs and bioactive compounds (AID 1345084); conditions: Gynecologic cancer cell panel viability, ATPlite luminescence, 48 h; series mostly up to 57.5 µM; note: nearly all actives have a fitted effect of over 55% in size; note: potency is the fitted concentration of half-maximal effect; for activity change, negative = cytotoxicity: % is set by controls: 0 for no effect and ±100 for the full control effect
# Method in brief: as §1
# SKOV3 = assay: as above; conditions: Gynecologic cancer cell panel viability, ATPlite luminescence, 48 h; series mostly up to 57.5 µM
# Method in brief: as §1
# [5] = test system: Zika virus NS2B-NS3 protease (unlinked complex); assay: Primary screen GU Rhodamine qHTS for Zika virus inhibitors: Unlinked NS2B-NS3 protease assay (AID 1347159); note: potency is the fitted concentration of half-maximal effect; nearly all actives have a fitted effect of over 60% in size
# Method in brief: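 Unlinked NS2B/NS3, 25 nM; Rhod110 peptide, 1.5 microM; compounds, up to 114 microM. Reaction run 15 min at RT in 10 mM Tris-HCl pH 8.0, 0.01% Tween 20; kinetic fluorescence change fitted with a 4-parameter Hill model.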
# [6] = biological target: Cytochrome P450 2D6 (Homo sapiens) (UniProt P10635); assay: Cytochrome P450 family 2 subfamily D member 6 (CYP2D6) small molecule antagonists: luciferase biochemical (cell-free) qHTS assay (AID 1645840; active = well fitted curve in the direction sought with a large enough effect in the repeat runs; inconclusive = weak or mixed curves; inactive = no such curve, though single readings can be large; an effect the other way counts as inactive or inconclusive)
# Sequence of UniProt P10635 (P10635 whole entry, looked up): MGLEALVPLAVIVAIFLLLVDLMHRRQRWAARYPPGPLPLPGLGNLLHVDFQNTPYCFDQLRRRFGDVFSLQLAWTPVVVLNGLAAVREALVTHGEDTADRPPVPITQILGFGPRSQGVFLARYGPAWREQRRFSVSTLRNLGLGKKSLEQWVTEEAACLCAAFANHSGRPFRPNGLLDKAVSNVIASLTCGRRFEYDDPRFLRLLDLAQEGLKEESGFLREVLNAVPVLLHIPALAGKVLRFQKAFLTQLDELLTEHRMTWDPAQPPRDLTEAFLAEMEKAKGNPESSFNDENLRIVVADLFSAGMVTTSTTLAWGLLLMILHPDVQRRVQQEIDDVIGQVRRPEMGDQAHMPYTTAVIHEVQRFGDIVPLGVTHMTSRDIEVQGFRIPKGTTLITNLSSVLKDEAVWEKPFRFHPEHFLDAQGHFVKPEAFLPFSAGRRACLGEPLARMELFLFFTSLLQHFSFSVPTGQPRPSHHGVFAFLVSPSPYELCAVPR
# Method in brief: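 P450-Glo CYP2D6 system: proluciferin substrate converted by enzyme to luciferin, read by luminescence proportional to activity. Enzyme-substrate mix with compound 10 min at room temperature, then NADPH regeneration 1 h before detection reagent.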
# CAOV3 = assay: Primary qHTS to identify gynecologic anti-cancer compounds using libraries of approved drugs and bioactive compounds (AID 1345084); conditions: Gynecologic cancer cell panel viability, ATPlite luminescence, 48 h; activity change, negative = cytotoxicity: at 57.5 µM (top of the series); note: nearly all actives have a fitted effect of over 55% in size; note: potency is the fitted concentration of half-maximal effect; for activity change, negative = cytotoxicity: % is set by controls: 0 for no effect and ±100 for the full control effect
# Method in brief: as §1
# CASKI = assay: as above; conditions: Gynecologic cancer cell panel viability, ATPlite luminescence, 48 h; series mostly up to 57.5 µM
# Method in brief: as §1
# [7] = Drug repurposing screens with cells derived from glioblastoma tumor samples (AID 1345199); conditions: GBM patient neurospheres viability, ATP luminescence, 48 h; Potency: tumour line A unless noted; activity, negative = cell killing: at 46 µM (top of the series), tumour line A unless noted; note: % is set by controls: 0 for no effect and ±100 for the full control effect; nearly all actives have a fitted effect of over 40% in size
# Method in brief: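 Primary testing used CD133+ neurospheres from four GBM patients, seven concentrations, 48 h exposure and ATP-based viability; confirmation added three slower-growing patient lines.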
# OV90 = assay: Primary qHTS to identify gynecologic anti-cancer compounds using libraries of approved drugs and bioactive compounds (AID 1345084); conditions: Gynecologic cancer cell panel viability, ATPlite luminescence, 48 h; series mostly up to 57.5 µM; note: nearly all actives have a fitted effect of over 55% in size; note: potency is the fitted concentration of half-maximal effect
# Method in brief: as §1
# Tov-21-G = assay: as above; conditions: Gynecologic cancer cell panel viability, ATPlite luminescence, 48 h; activity change, negative = cytotoxicity: at 57.5 µM (top of the series) unless noted
# Method in brief: as §1
# [8] = Primary qHTS for small molecule stabilizers of the endoplasmic reticulum resident proteome: Secreted ER Calcium Modulated Protein (SERCaMP) assay (AID 1508630); conditions: SH-SY5Y GLuc-SERCaMP (Gaussia luciferase released on ER calcium loss) secretion, thapsigargin, luminescence; activity change, negative = inhibition: at 38.4 µM (top of the series) unless noted; note: potency is the fitted concentration of half-maximal effect
# Method in brief: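 The SH-SY5Y reporter protocol was run at 3 concentrations up to 38.3 uM (primary) or 11 concentrations (follow-up): 16 h compound, 100 nM thapsigargin for 4 h, then extracellular luciferase luminescence.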
# Tags give direction and shape of the fitted curve.
smiles,measurement,setting,value
C/C=C(/COC(=O)/C(C)=C/C)C(=O)OC(CC)c1ccc(OC)c(OC)c1 (stereo not drawn),Potency,[1],inactive
same,Potency,[2],inactive
same,max response,HEK293,inactive: 4.08%
same,Potency,C33A,inactive
Cn1nc(C(C)(C)C)cc1C(=O)N[C@@H](Cc1cccc(Cl)c1)C(=O)NCC#N,Potency,[3],"inconclusive: 29 µM [inhibitor, single point]"
same,Potency,[4],"inconclusive: 29 µM [inhibitor, single point]"
same,Potency,HEK293,"inconclusive: 29.1 µM [inhibitor, single point]"
same,Potency,C33A,inactive
same,Potency,PA-1,inactive
same,Potency,SKOV3,"inconclusive: 1.41 µM [cytotoxic, single point]"
COC(=O)c1ccc(NC(C)=O)cc1OC,Potency,[4],inactive
same,max response,HEK293,inactive: -0.683%
same,Potency,C33A,inactive
Nc1nc2c(nc(Br)n2[C@@H]2O[C@@H]3COP(=O)(O)O[C@H]3[C@H]2O)c(=O)[nH]1,Potency,[5],"inconclusive: 100 µM [inhibitor, single point]"
same,Potency,[3],inactive
same,Potency,[2],inactive
same,Potency,HEK293,"inconclusive: 29.1 µM [inhibitor, single point]"
same,Potency,C33A,inactive
same,Potency,SKOV3,"inconclusive: 0.141 µM [rising, full curve, poor fit]"
N#Cc1cc(C2=Nc3ccc(Br)cc3NC(=O)C2)ccn1,Potency,[3],inactive
same,Potency,[4],"inconclusive: 12.9 µM [inhibitor, partial curve]"
same,Potency,HEK293,"inconclusive: 25.9 µM [inhibitor, single point]"
same,Potency,C33A,inactive
same,Potency,SKOV3,"inconclusive: 1.26 µM [rising, full curve]"
CCN(Cc1ccccc1)C(=O)Cn1c(=O)n(C)c2cnc(-c3ccccc3)nc21,Potency,[1],"inconclusive: 8.2 µM [inhibitor, partial curve, poor fit]"
same,Potency,[6],"inconclusive: 21.3 µM [inhibitor, single point]"
same,Potency,HEK293,"inconclusive: 29.1 µM [inhibitor, single point]"
same,Potency,CAOV3,"inconclusive: 39.8 µM [rising, single point]"
same,Potency,CASKI,inactive
same,Potency,PA-1,inactive
same,Potency,SKOV3,"inconclusive: 39.8 µM [cytotoxic, single point]"
NC1CCCCN(c2c(F)cc3c(=O)c(C(=O)O)cn(C4CC4)c3c2Cl)C1 (stereo not drawn),max response,HEK293,inactive: -12.1%
same,Potency,C33A,inactive
CC(C)Oc1ccc(-c2cnc3c(-c4ccnc5ccccc45)cnn3c2)cc1,Potency,[3],inactive
same,Potency,[4],inactive
same,Potency,HEK293,"inconclusive: 18.4 µM [inhibitor, single point]"
same,Potency,C33A,inactive
CC(C)CC1NC(=O)C(C(C)c2ccccc2)NC(=O)C(C(C)C)NC(=O)C(C)NC(=O)CCCNC(=O)C(Cc2c[nH]c3ccccc23)NC(=O)C(C)NC1=O (stereo not drawn) (cyclo([GABA]AV[ξPhe(βξ-Me)]LAW); configuration not given here),Potency,[1],inactive
same,Potency,[5],"inconclusive: 5.01 µM [inhibitor, full curve]"
same,Potency,[4],inactive
same,Potency,[2],"inconclusive: 7.93 µM [inhibitor, single point]"
same,outcome,HEK293,inactive
same,Potency,C33A,inactive
same,Potency,SKOV3,"inconclusive: 12.6 µM [rising, single point]"
CC(=O)NC(Cc1c[nH]c2ccccc(=O)c12)C(=O)O (stereo not drawn),Potency,[2],active: 5.32 µM
same,max response,HEK293,inactive: 1.04%
same,Potency,C33A,inactive
same,Potency,SKOV3,"inconclusive: 22.4 µM [rising, single point]"
Cn1cc[nH]c1=S,Potency,[1],inactive
same,outcome,HEK293,inactive
same,Potency,C33A,inactive
same,Potency,[7],inactive
CC1OC(OC2C(CO)OC(OCC3OC(OC(=O)C45CCC(C)(C)CC4C4=CCC6C7(C)CCC(OC8OC(CO)C(O)C(OC9OC(CO)C(O)C(O)C9O)C8O)C(C)(C)C7CCC6(C)C4(C)CC5)C(O)C(O)C3O)C(O)C2O)C(O)C(O)C1OC1OC(CO)C(O)C(O)C1O (stereo not drawn),"activity change, negative = thiol reactive",[2],inactive: 208% [at 11.5 µM]
same,max response,HEK293,inactive: -0.594%
same,"activity change, negative = cytotoxicity",C33A,inactive: -0.229% [at 6.55 µM]
CC(=O)O[C@@H]1C[C@]2(C)[C@@]3(CCC4[C@@]5(C)CC[C@H](O[C@@H]6O[C@H](C(=O)O)[C@@H](O)[C@H](OC7OC(CO)C(O)C(O)[C@H]7O[C@@H]7O[C@@H](C)[C@H](O)[C@@H](O)[C@H]7O[C@@H]7OC[C@](O)(CO)[C@H]7O)[C@H]6OC6OC(CO)C(O)C(O)C6O)C(C)(C)C5CC[C@]42C)OC[C@@]12CCC(C)(C)CC23 (stereo partly drawn),Potency,[5],"inconclusive: 3.98 µM [inhibitor, partial curve]"
same,Potency,[3],"inconclusive: 3.45 µM [inhibitor, single point]"
same,Potency,[4],"inconclusive: 2.74 µM [inhibitor, partial curve, poor fit]"
same,Potency,HEK293,"inconclusive: 2.45 µM [inhibitor, single point]"
same,"activity change, negative = cytotoxicity",C33A,inactive: 2.65% [at 6.55 µM]
CC1=C(C(=O)OC2CCCCC2)C(c2ccc([N+](=O)[O-])cc2)C2=C(CC(C)(C)CC2=O)N1 (stereo not drawn),Potency,[1],inactive
same,Potency,[3],inactive
same,Potency,HEK293,"inconclusive: 29.1 µM [inhibitor, single point]"
same,Potency,C33A,inactive
same,Potency,OV90,inactive
same,Potency,PA-1,"inconclusive: 39.8 µM [cytotoxic, single point]"
COc1cc(N2CCC(O)CC2)ccc1Nc1nc(Nc2ccccc2S(=O)(=O)C(C)C)c2[nH]cnc2n1,Potency,[5],"inconclusive: 89.1 µM [inhibitor, partial curve, poor fit]"
same,Potency,[6],"inconclusive: 37.9 µM [inhibitor, single point]"
same,Potency,[4],active: 4.09 µM
same,Potency,HEK293,active: 5.8 µM
same,Potency,CAOV3,"inconclusive: 31.6 µM [cytotoxic, single point]"
same,Potency,CASKI,"inconclusive: 31.6 µM [cytotoxic, single point]"
same,Potency,SKOV3,inactive
same,Potency,Tov-21-G,"inconclusive: 14.1 µM [cytotoxic, partial curve]"
CCCN(CCN1CCN(c2ccccc2OC)CC1)C1CCc2ncsc2C1 (stereo not drawn),max response,HEK293,inactive: 0.117%
same,Potency,C33A,inactive
same,Potency,OV90,inactive
same,Potency,SKOV3,"inconclusive: 0.794 µM [cytotoxic, single point]"
CC[C@H](C)[C@H](NC(=O)[C@H](Cc1ccc(O)cc1)NC(=O)[C@@H](N)C(C)C)C(=O)N[C@@H](Cc1cnc[nH]1)C(=O)N1CCC[C@H]1C(=O)N[C@@H](Cc1ccccc1)C(=O)O,Potency,[5],"inconclusive: 8.91 µM [inhibitor, single point]"
same,outcome,[3],inactive [at 4.96 µM]
same,max response,HEK293,inactive: 0.716%
same,"activity change, negative = cytotoxicity",C33A,inactive: 19.1% [at 6.55 µM]
O=C(NC1CCN(CCc2c[nH]c3ccccc23)CC1)c1ccccc1,Potency,[8],"inconclusive: 28.2 µM [inhibitor, single point]"
